Source: publication PMC9287172, “Molecular basis for the regulation of human glycogen synthase by phosphorylation and glucose-6-phosphate” (Nature Structural & Molecular Biology, 2022)
Substitutions are numbered along the chain they refer to. Names and notes keep the numbering of the source. Results are given in words; binding and its absence hold for the method and conditions named. Some entries that bind do so weakly or less than the wild type. Sequences can lack the tags named with a protein. Each block holds one binder with its values, some of them ahead of it.

How the values were obtained:
[1] = target: T1, full-length human GYS1 with N-terminal His6-tag (FastBac-Dual construct) (human) (UniProt P13807); test: co-purification (Ni-Sepharose affinity and size-exclusion chromatography); GYS1 (N-terminal His6) and GYG1 coexpressed in Sf9 cells; lysis buffer 50 mM sodium phosphate pH 7.5, 500 mM NaCl, 5% glycerol, 0.5 mM TCEP, 10 mM imidazole; Ni-Sepharose, Superose 6; SDS-PAGE
T1 sequence (chain, heterogeneous phosphorylation (denaturing mass spectrometry)): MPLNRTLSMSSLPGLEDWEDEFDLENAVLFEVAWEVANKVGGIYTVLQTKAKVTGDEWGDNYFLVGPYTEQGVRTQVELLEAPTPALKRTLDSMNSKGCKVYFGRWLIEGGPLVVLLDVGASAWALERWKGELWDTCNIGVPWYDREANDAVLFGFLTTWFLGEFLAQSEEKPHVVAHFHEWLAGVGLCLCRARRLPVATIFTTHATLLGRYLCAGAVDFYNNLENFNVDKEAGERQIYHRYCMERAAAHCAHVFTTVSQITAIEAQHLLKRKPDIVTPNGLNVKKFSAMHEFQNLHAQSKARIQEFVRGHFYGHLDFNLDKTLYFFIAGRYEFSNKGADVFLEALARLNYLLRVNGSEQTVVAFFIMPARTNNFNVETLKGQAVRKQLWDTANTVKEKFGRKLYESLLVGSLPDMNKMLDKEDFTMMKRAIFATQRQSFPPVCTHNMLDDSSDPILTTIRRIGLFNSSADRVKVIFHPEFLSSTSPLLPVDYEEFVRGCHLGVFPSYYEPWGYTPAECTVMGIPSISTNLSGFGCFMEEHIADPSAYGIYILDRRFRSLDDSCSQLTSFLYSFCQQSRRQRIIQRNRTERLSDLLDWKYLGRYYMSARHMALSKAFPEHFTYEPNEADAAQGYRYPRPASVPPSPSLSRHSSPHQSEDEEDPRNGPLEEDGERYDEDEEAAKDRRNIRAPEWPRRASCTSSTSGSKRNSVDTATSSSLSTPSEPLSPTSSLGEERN

[2] = target: T2, human PTG (PPP1R3C) aa 134–259, CBM21 domain construct, His-tagged (human) (UniProt Q9UQK1); test: native gel or EMSA; Blue-Native PAGE; His-PPP1R3C, GYS1–GYG1 complex and/or GYG1 in 25 mM HEPES pH 7.5, 200 mM NaCl, 1.0 mM TCEP, preincubated 5 min at room temperature; both purified
T2 sequence: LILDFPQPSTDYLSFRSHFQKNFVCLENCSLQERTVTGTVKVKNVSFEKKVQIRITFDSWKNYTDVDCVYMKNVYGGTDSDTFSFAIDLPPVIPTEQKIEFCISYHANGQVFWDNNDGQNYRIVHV

[3] = target: T2, human PTG (PPP1R3C) aa 134–259, CBM21 domain construct, His-tagged (human); test: condition: 0.25 mg ml^-1 complex with 1.0 mg ml^-1 His-PPP1R3C; pull-down; His-PPP1R3C (1.0 mg ml^-1) preincubated with GYS1–GYG1 complex (0.25 mg ml^-1) or GYG1 (0.5 mg ml^-1) for 30 min at 4 °C, captured on Talon resin in 25 mM HEPES pH 7.5, 100 mM NaCl, 1 mM TCEP, 0.2% Tween-20; wash with 10 mM imidazole; SDS-PAGE, Coomassie; both purified

B1: full-length human GYG1 (GYG1^FL), glucosylated (enzyme, UniProt P46976-1 1-350)
chain: MTDQAFVTLTTNDAYAKGALVLGSSLKQHRTTRRLVVLATPQVSDSMRKVLETVFDEVIMVDVLDSGDSAHLTLMKRPELGVTLTKLHCWSLTQYSKCVFMDADTLVLANIDDLFDREELSAAPDPGWPDCFNSGVFVYQPSVETYNQLLHLASEQGSFDGGDQGILNTFFSSWATTDIRKHLPFIYNLSSISIYSYLPAFKVFGASAKVVHFLGRVKPWNYTYDPKTKSVKSEAHDPNMTHPEFLILWWNIFTTNVLPLLQQFGLVKDTCSYVNVLSDLVYTLAFSCGFCRKEDVSGAISHLSLGEIPAMAQPFVSSEERKERWEQGQADYMGADSFDNIKRKLDTYLQ
modifications: heterogeneous glucosylation (glucose chain attached to GYG1)
binding [1]: binds

B4: GYS1–GYG1^ΔCD complex (human GYS1 aa 1–737 with GYG1 aa 294–350) (complex, UniProt P13807 1-737; P46976-1 294-350)
chain 1: T1 sequence (chain, heterogeneous phosphorylation (denaturing mass spectrometry))
chain 2: EDVSGAISHLSLGEIPAMAQPFVSSEERKERWEQGQADYMGADSFDNIKRKLDTYLQ
modifications: multiply phosphorylated
binding [2]: no binding
binding [3]: no binding

Further lines, results first:

binding [1]: binds
B2: full-length human GYG1^p.Y195F (nonglucosylated) (enzyme, UniProt P46976-1 1-350)
chain: B1 chain with Y195F

binding [2]: no binding
binding [3]: no binding
B3: GYS1–GYG1^p.Y195F complex (full-length human GYS1 with full-length nonglucosylated GYG1 Y195F) (complex, UniProt P13807 1-737; P46976-1 1-350)
chain 1: T1 sequence (chain, heterogeneous phosphorylation (denaturing mass spectrometry))
chain 2: B1 chain with Y195F
modifications: phosphorylated as purified
